Among the data in the RNAGym collection of RNA variant scans (doi:10.7554/elife.90254) are self-cleavage values, retold here.

The source gives no read counts; variants with many changes may rest on few reads.

The chains are these.
B1: LINE1-mini (parent)
chain: GGCAGAGCUCAACACAGCGUGGCAAAGUGGCUGUGGCUAGACUGCC

The variants in this series derive from B1. In words: self-cleavage, relative activity (ratio to wild type); higher = more cleavage; in vitro, sequencing; the parent is a self-cleaving ribozyme.
Consider A4U A24G G44U, for which the self-cleavage is 0.08.

Turning to A4U A6U C13G C15A G36A U38G, the self-cleavage amounted to 0.02. As to A4G G7C C13A C45A, the self-cleavage came to 0.41. Next, A4G G7U G27U U38C G40U: 0.16; A4U G36C C37G G44C C46A: 0.43.

For A4G G7A C10G G35A, the self-cleavage was 0.03. As for A4U G17A A26G G30C A39U C45G, the self-cleavage turned out to be 0.01. For the variant A4U G5C U9A G30C C31G G44C, the self-cleavage turned out to be 0.02. Consider A4U U9G G44A, for which the self-cleavage was 0.72.

On to G5A A6C C18U, for which the self-cleavage was determined as 0.82.

As to A4G G22A G33U U38G, the self-cleavage was 0.11. The value for A4U U9A C23U was 0.07.

Regarding A4G G5A G27A, the self-cleavage was 0.05.

A4U G21A A26C U38C: the self-cleavage turned out to be 0.1. Next, A4U G5A C18A G27C C45U: 0.02. The value for A4U G29U A41U C42U was 0.03; that for A4U G21U C37A was 0.03. On to A4U G19C G27U, for which the self-cleavage amounted to 0.02. Next, A4U C8U C10A C18U G27A: 0.02. Regarding A4U U20A C45A, the self-cleavage amounted to 0.05. Next, A4G G21C G40A: 0.07.

On to A4G G40A C45G, for which the self-cleavage was 0.15. As to A4G G5A C10A, the self-cleavage was found to be 0.07. As to A4G G22U U28A, the self-cleavage turned out to be 0.35. The value for A4U G5U U9G G35U was 0.04. The value for A4U G7A A12G G17C A24C A39C was 0.01. As to G5A A6G G22C G40A C42U, the self-cleavage was 0.03. The value for A4U C15U G21C was 0.23; that for A4U C10A C45A C46U was 0.01; that for A4U C13A C42A was 0.09. The value for A4U G5A G21C was 0.27; that for A4G U20G G35U C46U was 0.16; that for A4G G7U C8A was 0.2.

Consider A4U C10A G33U C45A, for which the self-cleavage was determined as 0.02. Next, A4G U9A C13U C15G G44C: 0.02; A4G G19U U32G: 0.28.

Take A4G G30C G36A: the self-cleavage was found to be 0.07.

As for A4G U9C A24C G29C, the self-cleavage was 0.02. The value for A4U A12G G17C C18U G21A C45G was 0; that for A4G G27U C37A was 0.57. On to A4G C18G A26G A41U G44C C46A, for which the self-cleavage was 0.05. As to A4U A14U A25U, the self-cleavage is 0.17. The value for A4G C18A A24G A39U was 0.05; that for A4U A25U A41G was 0.04. Next, A4U A25G U28C: 0; A4U A24C G27A G33U: 0.17. Next, A4G C15G G30C C46G: 0.18; A4U U9G U20C G21A: 0.12. For the variant A4U C10G A14G G35U, the self-cleavage turned out to be 0. For G5A A6U C31G U43C G44A, the self-cleavage came out at 0.02.

On to A4G G21C G29U G40C, for which the self-cleavage came to 0.07. Regarding A4G G22A A24C G33A, the self-cleavage amounted to 0.56. On to A4U A11U C31G C37A, for which the self-cleavage stood at 0.01. A4U G5C A12G C15U: the self-cleavage came out at 0.08.

On to A4U C18A U34A, for which the self-cleavage was determined as 0.01. The value for A4U C15U G33U was 0.05.

A4G G5U G7C C8A G22U U32A: the self-cleavage is 0.13. A4G C23G C31G U34A: the self-cleavage was 0.01. The value for A4U C15A G22C G33C was 0.03; that for A4U C10A C42A G44A was 0.05. For the variant A4G C42U C46U, the self-cleavage is 0.08. Regarding A4U U20G G21A G22C C23A A25U C37G C46A, the self-cleavage amounted to 0. Next, A4U G7U G44C: 0.14; A4G G17U G36U: 0.15. Consider A4U C18G C23U G29U U43A, for which the self-cleavage was determined as 0.05. The value for A4U G17A G35C U38A C46U was 0.02; that for A4U A11U U20G was 0; that for A4U U20G C37A was 0.02. As for G5A A6C U9C U20G G29U G30U, the self-cleavage amounted to 0.04. Next, A4U A12C G19C C23A U43A: 0.01; A4U A12C C46G: 0.07. The value for A4G G30U C45U was 0.28; that for A4U A6G A39G A41C C46G was 0.02; that for A4U G29U U43C was 0.01. Take A4G G22U G29A C37U C45U: the self-cleavage was determined as 0.07. A4G G17C C23G C31G C37A: the self-cleavage was 0. Turning to A4U G5A A25G, the self-cleavage came to 0.24. Next, A4U A12G C18U U28A U32A: 0.06. Regarding A4U G36C C45G, the self-cleavage worked out at 0.11. The value for A4U G33U A39G was 0.05; that for A4G G7C G29C was 0.04. Next, G5A A6C A11G A25U A41U: 0.02; G5A A6U U20C G29U: 0.05. The value for A4U A12G U20C was 0. For the variant A4G G7U A26C U32C U38G C45A, the self-cleavage is 0.02.

For A4U G27A C42A C46U, the self-cleavage worked out at 0.03. As to A4U C10U G27C G30U, the self-cleavage came to 0.04. On to A4G G5C A14G U20G A25G U34A, for which the self-cleavage amounted to 0.01. The value for G5A A11G C45A was 0.02. The value for A4G C15U G21A U32C was 0.03. Next, A4U C10A G19A U20G G21U G27U: 0.01; A4G G21A A26G G30U U43G C45G C46U: 0.02; A4G C18U U28C G35C G40C: 0.04. For A4U C23U U28G C31U A39U C46G, the self-cleavage worked out at 0.04. With A4G G5U C10A A24C C42A U43C, the self-cleavage was found to be 0.08. On to G5A A11G C15G A25C, for which the self-cleavage was determined as 0.01. A4U C10A C18G: the self-cleavage amounted to 0.03. Consider A4U C31G A41G, for which the self-cleavage was found to be 0.05.

Regarding A4U A6C C10A, the self-cleavage came out at 0. For A4G G7U C15U G17A A41C C45A, the self-cleavage was 0.11. Next, A4G G17A A39U: 0.03; A4G G7A G29A C42G: 0.03. A4G G5C G27U U28C G29A A39G: the self-cleavage was 0.02. The value for A4U C10A G17C was 0.01; that for A4U C18U G21A was 0.26. Regarding A4U G22C A26G, the self-cleavage was determined as 0.05.

For the variant A4U A11C G30C, the self-cleavage is 0. The value for A4U G21U U34C was 0.04; that for A4U U9A C37A was 0.21; that for A4G G5A C45U was 0.07. Consider A4G G27U C31A, for which the self-cleavage was 0.21. Turning to A4G G7U A12C G21A G30A G36U, the self-cleavage turned out to be 0.09. Next, A4U U9G G19U G21U A24G G40C: 0.35.

For A4G U9A G19A, the self-cleavage stood at 0.03. The value for A4G G5U G22A G29C C37U was 0.05; that for A4U G33U G35U was 0.01. The value for A4U C10A G29A G30U A41C was 0.03; that for A4U G5C U9C A14C A24U was 0.04; that for A4U C10A U28C C37G C45U was 0.01.

Regarding A4U G5A C8A C46G, the self-cleavage turned out to be 0.13. The value for A4G U34G A39C was 0.03; that for A4U G36A C46G was 0.26. The value for A4G G7A G27U C31G was 0.07. On to A4U C10A G19A C37G A41C, for which the self-cleavage was 0. Next, A4G G5C G19U U34C: 0.03; A4U C18U U20G: 0.02; A4U G21A A24G G30A U34G C45A: 0.03. The value for A4U G7A A11C C23U G40U A41U was 0.03; that for A4G U9C G22C C37U was 0.47; that for A4G C18A U34G was 0.12. Next, A4U C31A G35A: 0.09. As for A4G U20A C37G A41C, the self-cleavage came out at 0.03. Next, G5A A11G A26C U32G A41G: 0.01. Turning to A4G U9C A11U C23G G36U C46A, the self-cleavage was 0.01. Turning to A4G C37U G44U, the self-cleavage came to 0.03. Next, A4U G7U C18A U34G G35U G36A: 0.03; A4U C10G C18A G27C U34A: 0.03; G5A A6C U9C G35C A41C: 0.03. As for A4U A11U G19U, the self-cleavage was determined as 0. A4U A16G C18G G22C G30A C37A: the self-cleavage was 0.02. On to A4G U9A U43C, for which the self-cleavage worked out at 0.25. Regarding A4U C23G G29U U32G, the self-cleavage worked out at 0.01.

For A4U C13U G27C U43C C45U, the self-cleavage is 0.12. The value for A4G C18A G22C was 0.42; that for A4G G35U A41G was 0.59. Next, A4G C18G U20G: 0.05; A4U C10U A14G C15G C37A A39G G40C: 0.01. The value for A4U G5C G17U G30U G40A was 0.04. Regarding A4U U9G C18A G30A G35A U43C, the self-cleavage amounted to 0.02. Regarding A4U G19C G29A G40A C46A, the self-cleavage stood at 0.04. Turning to A4U C8G C10U A25U C46G, the self-cleavage was 0.02. Next, A4G G7A G17C A41G C46A: 0.59; A4U G5C G7C C45A: 0.1. For G5A A6C C13A G29A, the self-cleavage came out at 0.07. Consider A4U G30C G36A, for which the self-cleavage was 0.21. On to A4G G7A C37U, for which the self-cleavage turned out to be 0.36. As to A4U G7U A12C A14G C15A G33U U43C, the self-cleavage is 0.07. With A4G G29U U32C, the self-cleavage came to 0.13. The value for A4U A6G C10G G36C A41C was 0.01; that for G5A A11G A25G was 0.01. With A4U G7C G22U G36C, the self-cleavage is 0.12. On to A4U C13U C23A C45U, for which the self-cleavage amounted to 0.2. Next, G5A A6C U32A G36U: 0.01; A4U C23U U34G C37U C46U: 0.01; A4U C10A G17A A26C: 0.01. Next, A4G U20G C31A U38G: 0. The value for A4G U32C U38A was 0.09.
